According to PMC8694192, “Synthesis and biological evaluation of new derivatives of thieno-thiazole and dihydrothiazolo-thiazole scaffolds integrated with a pyrazoline nucleus as anticancer and multi-targeting kinase inhibitors” (RSC Advances, 2021):

Experiments:
HepG-2 cells = test: In vitro cytotoxicity, MTT assay, HepG-2; settings: relative to doxorubicin
VEGFR-2 = VEGFR-2 (Homo sapiens, UniProt P35968); settings: relative to sorafenib
MCF-7 cells [1] = test: In vitro cytotoxicity, MTT assay, MCF-7; settings: relative to doxorubicin
MCF-7 cells [2] = test: DNA-flow cytometric cell cycle analysis (PI staining); type: cell-based, human; settings: MCF-7, 24 h, 4.021 μM for compound 1, 8.35 μM for 3c
Procedure: More details in the ESI. ^†
DMSO was utilized as a negative control. The stages of cell cycle were being detected via flow cytometry after propidium iodide (PI) staining followed by RNAse treatment.[63] In this experiment, MCF-7 cells were incubated with a concentration of 4.021 μM for compound 1 and with 8.35 μM for compound 3c for 24 h. The flow cytometry approach was used to quantify cell populations at various stages of the cell cycle (pre-G1, G1, S and G2/M phases).
screening of final compounds.
using 1 μM concentration of ATP.
1.2.4. Annexin V-FITC apoptosis assay
Briefly, cells were seeded

SMILES: Cc1c(Nc2nc3c(C(=O)NN)c(N)sc3s2)c(=O)n(-c2ccccc2)n1C [Compound 3c, 5-Amino-2-((1,5-dimethyl-3-oxo-2-phenyl-2,3-dihydro-1H-pyrazol-4-yl)amino) thieno[3,2-d]thiazole-6-carbohydrazide]
- fold decrease in activity against HepG-2 (HepG-2 cells): ~1.3 folds
- fold decrease in inhibitory activity against VEGFR-2 (VEGFR-2): ~2.2 folds
- fold decrease in activity against MCF-7 (MCF-7 cells [1]): about 1.8 folds

SMILES: Cc1c(NC2=NC(=O)CS2)c(=O)n(-c2ccccc2)n1C [Compound 1, 2-((1,5-Dimethyl-3-oxo-2-phenyl-2,3-dihydro-1H-pyrazol-4-yl)amino)thiazol-4(5H)-one]
- percentage of cells at G1 (MCF-7 cells [2]): 52.38%
- percentage of cells at G2/M (MCF-7 cells [2]): 23.51%
- percentage of cells at pre-G1 (MCF-7 cells [2]): 26.37%
- fold decrease in inhibitory activity against VEGFR-2 (VEGFR-2): about 2.4 folds
